Experimental data from paper PMC12820563.
Some of the results follow. The list includes weakly bound sequences.

target: T1, MBP-FoxP3dN (UniProt Q99JB6); experiment: PD-seq (MBP pull-down with sequencing); conditions: 20 mM Tris-HCl pH 7.5, 100 mM NaCl, 1.5 mM MgCl2, 0.4 uM protein, 0.1 uM dsDNA library, 30 min, room temperature, amylose pull-down; high values mean tight binding; double strand, one strand shown
T1 sequence: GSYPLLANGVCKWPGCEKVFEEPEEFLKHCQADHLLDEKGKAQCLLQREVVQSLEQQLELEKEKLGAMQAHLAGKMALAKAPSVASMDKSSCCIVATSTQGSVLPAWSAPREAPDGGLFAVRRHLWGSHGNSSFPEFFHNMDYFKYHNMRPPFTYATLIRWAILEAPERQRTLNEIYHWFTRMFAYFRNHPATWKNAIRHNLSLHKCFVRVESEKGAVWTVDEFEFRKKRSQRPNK

Row | Sequence | binding signal (RPM ratio (pull-down/input))
1 | GATGATTGTTCTCCCAGCTGATGAATTCGTGAGATCGAGTAAACAAATTTTCCTAATCTTTCTGTTCAAGCGCCATCTAC | 0.292
2 | GATGATTGTTCTCCCAGCTGATGAATTCGAGGAATCGAGTAAACAAATTTTCCTAATCTTTCTGTTCAAGCGCCATCTAC | 0.185
3 | GATGATTGTTCTCCCAGCTGATGAATTAGAGCAATCGAGTAAACAAATTTTCCTAATCTTTCTGTTCAAGCGCCATCTAC | 1.88
4 | GATGATTGTTCTCCCAGCTGATGAATTCGATGTATCGAGTAAACAAATTTTCCTAATCTTTCTGTTCAAGCGCCATCTAC | 2.15
5 | GATGATTGTTCTCCCAGCTGATGAATTGGGGCCCTCGAGTAAACAAATTTTCCTAATCTTTCTGTTCAAGCGCCATCTAC | 0.403
6 | GATGATTGTTCTCCCAGCTGATGAATTCCAGAGGTCGAGTAAACAAATTTTCCTAATCTTTCTGTTCAAGCGCCATCTAC | 0.237
7 | GATGATTGTTCTCCCAGCTGATGAATTAAGAGTGTCGAGTAAACAAATTTTCCTAATCTTTCTGTTCAAGCGCCATCTAC | 0.967
8 | GATGATTGTTCTCCCAGCTGATGAATTGGATATATCGAGTAAACAAATTTTCCTAATCTTTCTGTTCAAGCGCCATCTAC | 0.715
9 | GATGATTGTTCTCCCAGCTGATGAATTCAGGGCATCGAGTAAACAAATTTTCCTAATCTTTCTGTTCAAGCGCCATCTAC | 0.625
10 | GATGATTGTTCTCCCAGCTGATGAATTTTCATCCTCGAGTAAACAAATTTTCCTAATCTTTCTGTTCAAGCGCCATCTAC | 0.287
11 | GATGATTGTTCTCCCAGCTGATGAATTGTGGCAGTCGAGTAAACAAATTTTCCTAATCTTTCTGTTCAAGCGCCATCTAC | 1.21
12 | GATGATTGTTCTCCCAGCTGATGAATTAAGCAGTTCGAGTAAACAAATTTTCCTAATCTTTCTGTTCAAGCGCCATCTAC | 1.05
13 | GATGATTGTTCTCCCAGCTGATGAATTACCTTGCTCGAGTAAACAAATTTTCCTAATCTTTCTGTTCAAGCGCCATCTAC | 0.354
14 | GATGATTGTTCTCCCAGCTGATGAATTTTGTAGTTCGAGTAAACAAATTTTCCTAATCTTTCTGTTCAAGCGCCATCTAC | 4.32
15 | GATGATTGTTCTCCCAGCTGATGAATTTTTGCCTTCGAGTAAACAAATTTTCCTAATCTTTCTGTTCAAGCGCCATCTAC | 2.86
16 | GATGATTGTTCTCCCAGCTGATGAATTGAGCCTCTCGAGTAAACAAATTTTCCTAATCTTTCTGTTCAAGCGCCATCTAC | 5.15
17 | GATGATTGTTCTCCCAGCTGATGAATTGTCTGAGTCGAGTAAACAAATTTTCCTAATCTTTCTGTTCAAGCGCCATCTAC | 0.254
18 | GATGATTGTTCTCCCAGCTGATGAATTTATGGATTCGAGTAAACAAATTTTCCTAATCTTTCTGTTCAAGCGCCATCTAC | 0.902
19 | GATGATTGTTCTCCCAGCTGATGAATTGTTCTTCTCGAGTAAACAAATTTTCCTAATCTTTCTGTTCAAGCGCCATCTAC | 0.401
20 | GATGATTGTTCTCCCAGCTGATGAATTTCAAAAATCGAGTAAACAAATTTTCCTAATCTTTCTGTTCAAGCGCCATCTAC | 0.161
21 | GATGATTGTTCTCCCAGCTGATGAATTACAAGCGTCGAGTAAACAAATTTTCCTAATCTTTCTGTTCAAGCGCCATCTAC | 0.713
22 | GATGATTGTTCTCCCAGCTGATGAATTGATACCGTCGAGTAAACAAATTTTCCTAATCTTTCTGTTCAAGCGCCATCTAC | 0.617
23 | GATGATTGTTCTCCCAGCTGATGAATTTTGTCGCTCGAGTAAACAAATTTTCCTAATCTTTCTGTTCAAGCGCCATCTAC | 1.79
24 | GATGATTGTTCTCCCAGCTGATGAATTAAGGATCTCGAGTAAACAAATTTTCCTAATCTTTCTGTTCAAGCGCCATCTAC | 0.284
25 | GATGATTGTTCTCCCAGCTGATGAATTAGTCAGCTCGAGTAAACAAATTTTCCTAATCTTTCTGTTCAAGCGCCATCTAC | 0.563
26 | GATGATTGTTCTCCCAGCTGATGAATTCATCTTCTCGAGTAAACAAATTTTCCTAATCTTTCTGTTCAAGCGCCATCTAC | 0.431

Row | Sequence | binding signal (RPM ratio (pull-down/input))
27 | GATGATTGTTCTCCCAGCTGATGAATTGTCCTGATCGAGTAAACAAATTTTCCTAATCTTTCTGTTCAAGCGCCATCTAC | 0.262
28 | GATGATTGTTCTCCCAGCTGATGAATTGCATTGTTCGAGTAAACAAATTTTCCTAATCTTTCTGTTCAAGCGCCATCTAC | 4.05
29 | GATGATTGTTCTCCCAGCTGATGAATTCCACAACTCGAGTAAACAAATTTTCCTAATCTTTCTGTTCAAGCGCCATCTAC | 0.4
30 | GATGATTGTTCTCCCAGCTGATGAATTCCGGGCCTCGAGTAAACAAATTTTCCTAATCTTTCTGTTCAAGCGCCATCTAC | 0.367
31 | GATGATTGTTCTCCCAGCTGATGAATTAATAGTGTCGAGTAAACAAATTTTCCTAATCTTTCTGTTCAAGCGCCATCTAC | 0.89
32 | GATGATTGTTCTCCCAGCTGATGAATTATCGTACTCGAGTAAACAAATTTTCCTAATCTTTCTGTTCAAGCGCCATCTAC | 0.505
33 | GATGATTGTTCTCCCAGCTGATGAATTTCCGCGGTCGAGTAAACAAATTTTCCTAATCTTTCTGTTCAAGCGCCATCTAC | 0.24
34 | GATGATTGTTCTCCCAGCTGATGAATTCCTTCGCTCGAGTAAACAAATTTTCCTAATCTTTCTGTTCAAGCGCCATCTAC | 0.236
35 | GATGATTGTTCTCCCAGCTGATGAATTCACGTAGTCGAGTAAACAAATTTTCCTAATCTTTCTGTTCAAGCGCCATCTAC | 0.315
36 | GATGATTGTTCTCCCAGCTGATGAATTCTACTCGTCGAGTAAACAAATTTTCCTAATCTTTCTGTTCAAGCGCCATCTAC | 0.353
37 | GATGATTGTTCTCCCAGCTGATGAATTAACTTTCTCGAGTAAACAAATTTTCCTAATCTTTCTGTTCAAGCGCCATCTAC | 0.428
38 | GATGATTGTTCTCCCAGCTGATGAATTAACTGTTTCGAGTAAACAAATTTTCCTAATCTTTCTGTTCAAGCGCCATCTAC | 0.641
39 | GATGATTGTTCTCCCAGCTGATGAATTTCGGCACTCGAGTAAACAAATTTTCCTAATCTTTCTGTTCAAGCGCCATCTAC | 0.458
40 | GATGATTGTTCTCCCAGCTGATGAATTCAAAAAATCGAGTAAACAAATTTTCCTAATCTTTCTGTTCAAGCGCCATCTAC | 0.155
41 | GATGATTGTTCTCCCAGCTGATGAATTTCTCGTCTCGAGTAAACAAATTTTCCTAATCTTTCTGTTCAAGCGCCATCTAC | 0.277
42 | GATGATTGTTCTCCCAGCTGATGAATTACGCGAGTCGAGTAAACAAATTTTCCTAATCTTTCTGTTCAAGCGCCATCTAC | 0.787
43 | GATGATTGTTCTCCCAGCTGATGAATTCACGCTTTCGAGTAAACAAATTTTCCTAATCTTTCTGTTCAAGCGCCATCTAC | 1.11
44 | GATGATTGTTCTCCCAGCTGATGAATTCCTGGCCTCGAGTAAACAAATTTTCCTAATCTTTCTGTTCAAGCGCCATCTAC | 0.303
45 | GATGATTGTTCTCCCAGCTGATGAATTGTTATGGTCGAGTAAACAAATTTTCCTAATCTTTCTGTTCAAGCGCCATCTAC | 3.05
46 | GATGATTGTTCTCCCAGCTGATGAATTCGCTCGCTCGAGTAAACAAATTTTCCTAATCTTTCTGTTCAAGCGCCATCTAC | 0.27
47 | GATGATTGTTCTCCCAGCTGATGAATTCGCTGAATCGAGTAAACAAATTTTCCTAATCTTTCTGTTCAAGCGCCATCTAC | 0.249
48 | GATGATTGTTCTCCCAGCTGATGAATTGTAAACCTCGAGTAAACAAATTTTCCTAATCTTTCTGTTCAAGCGCCATCTAC | 0.86
49 | GATGATTGTTCTCCCAGCTGATGAATTTACACGGTCGAGTAAACAAATTTTCCTAATCTTTCTGTTCAAGCGCCATCTAC | 0.384
50 | GATGATTGTTCTCCCAGCTGATGAATTAGTAGGATCGAGTAAACAAATTTTCCTAATCTTTCTGTTCAAGCGCCATCTAC | 0.437
51 | GATGATTGTTCTCCCAGCTGATGAATTGTGGTGATCGAGTAAACAAATTTTCCTAATCTTTCTGTTCAAGCGCCATCTAC | 1.16
